# Reference: the supplement of paper PMC8728848
# This is one part of the list.
# B1: Epa23 (Candida glabrata) (protein)
# chain: MGSSHHHHHHSSGLVPRGSHMIPNPFEGTINNFPSGCSPNHGLYNRGLTMELYNYSYIHPQSIQSYFNTSTLKKMEKGQCWDPSYLDVNYPRTGYKTHNRFAKVNGIDGILDFEFNPTRSCVPSKGQLPQNYNYPLQFTLSNFTMLLYGYFKPKVTAKHTFTIFADDLLFLNFGAGNAFDCCQQQDTIDDFGNYQAYALWGSDTQQNTLTVNLDANIYYPIRMFYNNRDFKGALNMYFTTDESNTKINDFSGYLFNIPDSSEGCPAHISYETECGNVSG
# Legend:
# Test in all cases: glycan array binding signal (z-score within array); higher = stronger binding
# Conditions in all cases: glycan notation: IUPAC condensed, linker removed
# [1] = target: GlcNAc(b1-3)Gal(b1-4)GlcNAc(b1-3)Gal(b1-4)GlcNAc(b1-2)Man(a1-3)[GlcNAc(b1-3)Gal(b1-4)GlcNAc(b1-3)Gal(b1-4)GlcNAc(b1-2)Man(a1-6)]Man(b1-4)GlcNAc(b1-4)GlcNAc
# In short: (§1)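 Negative Z-scores can be read as non-binding. The Z-score is calculated within each array and then averaged across arrays of one protein sequence at different concentrations or buffers and across linkers. Arrays, 3228 in all, were curated from the Consortium for Functional Glycomics database and kept only where the protein sequence was available.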
# [2] = target: GlcNAc(b1-3)Gal(b1-4)GlcNAc(b1-3)Gal(b1-4)GlcNAc(b1-2)Man(a1-3)[GlcNAc(b1-3)Gal(b1-4)GlcNAc(b1-3)Gal(b1-4)GlcNAc(b1-2)Man(a1-6)]Man(b1-4)GlcNAc(b1-4)[Fuc(a1-6)]GlcNAc
# In short: as §1
# [3] = target: GlcNAc(b1-3)Gal(b1-4)GlcNAc(b1-3)Gal(b1-4)GlcNAc(b1-2)[GlcNAc(b1-3)Gal(b1-4)GlcNAc(b1-3)Gal(b1-4)GlcNAc(b1-6)]Man(a1-6)[GlcNAc(b1-3)Gal(b1-4)GlcNAc(b1-3)Gal(b1-4)GlcNAc(b1-2)Man(a1-3)]Man(b1-4)GlcNAc(b1-4)[Fuc(a1-6)]GlcNAc
# In short: as §1
# [4] = target: GlcNAc(b1-3)Gal(b1-4)GlcNAc(b1-3)Gal(b1-4)GlcNAc(b1-3)Gal(b1-4)GlcNAc(b1-2)Man(a1-3)[GlcNAc(b1-3)Gal(b1-4)GlcNAc(b1-3)Gal(b1-4)GlcNAc(b1-3)Gal(b1-4)GlcNAc(b1-2)Man(a1-6)]Man(b1-4)GlcNAc(b1-4)GlcNAc
# In short: as §1
# [5] = target: GlcNAc(b1-3)Gal(b1-4)GlcNAc(b1-3)Gal(b1-4)GlcNAc(b1-3)Gal(b1-4)GlcNAc(b1-2)Man(a1-3)[GlcNAc(b1-3)Gal(b1-4)GlcNAc(b1-3)Gal(b1-4)GlcNAc(b1-3)Gal(b1-4)GlcNAc(b1-2)Man(a1-6)]Man(b1-4)GlcNAc(b1-4)[Fuc(a1-6)]GlcNAc
# In short: as §1
# [6] = target: GlcNAc(b1-3)Gal(b1-4)GlcNAc(b1-3)Gal(b1-4)GlcNAc(b1-3)Gal(b1-4)GlcNAc(b1-2)[GlcNAc(b1-3)Gal(b1-4)GlcNAc(b1-3)Gal(b1-4)GlcNAc(b1-3)Gal(b1-4)GlcNAc(b1-6)]Man(a1-6)[GlcNAc(b1-3)Gal(b1-4)GlcNAc(b1-3)Gal(b1-4)GlcNAc(b1-3)Gal(b1-4)GlcNAc(b1-2)Man(a1-3)]Man(b1-4)GlcNAc(b1-4)[Fuc(a1-6)]GlcNAc
# In short: as §1
# [7] = target: GlcNAc(b1-3)Gal(b1-4)GlcNAc(b1-3)Gal(b1-4)GlcNAc(b1-3)Gal(b1-4)GlcNAc(b1-3)Gal(b1-4)GlcNAc(b1-2)Man(a1-3)[GlcNAc(b1-3)Gal(b1-4)GlcNAc(b1-3)Gal(b1-4)GlcNAc(b1-3)Gal(b1-4)GlcNAc(b1-3)Gal(b1-4)GlcNAc(b1-2)Man(a1-6)]Man(b1-4)GlcNAc(b1-4)GlcNAc
# In short: as §1
# [8] = target: GlcNAc(b1-3)Gal(b1-4)GlcNAc(b1-3)Gal(b1-4)GlcNAc(b1-3)Gal(b1-4)GlcNAc(b1-3)Gal(b1-4)GlcNAc(b1-2)Man(a1-3)[GlcNAc(b1-3)Gal(b1-4)GlcNAc(b1-3)Gal(b1-4)GlcNAc(b1-3)Gal(b1-4)GlcNAc(b1-3)Gal(b1-4)GlcNAc(b1-2)Man(a1-6)]Man(b1-4)GlcNAc(b1-4)[Fuc(a1-6)]GlcNAc
# In short: as §1
# [9] = target: GlcNAc(b1-3)Gal(b1-4)GlcNAc(b1-3)Gal(b1-4)GlcNAc(b1-3)Gal(b1-4)GlcNAc(b1-3)Gal(b1-4)GlcNAc(b1-2)[GlcNAc(b1-3)Gal(b1-4)GlcNAc(b1-3)Gal(b1-4)GlcNAc(b1-3)Gal(b1-4)GlcNAc(b1-3)Gal(b1-4)GlcNAc(b1-6)]Man(a1-6)[GlcNAc(b1-3)Gal(b1-4)GlcNAc(b1-3)Gal(b1-4)GlcNAc(b1-3)Gal(b1-4)GlcNAc(b1-3)Gal(b1-4)GlcNAc(b1-2)Man(a1-3)]Man(b1-4)GlcNAc(b1-4)[Fuc(a1-6)]GlcNAc
# In short: as §1
# [10] = target: GlcNAc(b1-3)Gal(b1-4)GlcNAc(b1-3)Gal(b1-4)GlcNAc(b1-3)GalNAc
# In short: as §1
# [11] = target: GlcNAc(b1-3)Gal(b1-4)GlcNAc(b1-3)GalNAc
# In short: as §1
# [12] = target: GlcNAc(b1-3)Gal(b1-4)GlcNAc(b1-3)[GlcNAc(b1-3)Gal(b1-4)GlcNAc(b1-3)]GalNAc
# In short: as §1
# [13] = target: GlcNAc(b1-3)Gal(b1-4)GlcNAc(b1-6)[Gal(b1-3)]GalNAc
# In short: as §1
# [14] = target: GlcNAc(b1-3)Gal(b1-4)GlcNAc(b1-6)[GlcNAc(b1-3)Gal(b1-3)]GalNAc
# In short: as §1
# [15] = target: GlcNAc(b1-3)Gal(b1-4)GlcNAc(b1-6)[GlcNAc(b1-3)]Gal(b1-4)GlcNAc
# In short: as §1
# [16] = target: GlcNAc(b1-3)GalNAc
# In short: as §1
# [17] = target: GlcNAc(b1-3)Man
# In short: as §1
# [18] = target: GlcNAc(b1-3)[GlcNAc(b1-4)][GlcNAc(b1-6)]GlcNAc
# In short: as §1
# [19] = target: GlcNAc(b1-3)[GlcNAc(b1-6)]Gal(b1-4)GlcNAc
# In short: as §1
# [20] = target: GlcNAc(b1-3)[GlcNAc(b1-6)]GalNAc
# In short: as §1
# [21] = target: GlcNAc(b1-4)Gal(b1-4)GlcNAc
# In short: as §1
# [22] = target: GlcNAc(b1-4)GlcNAc
# In short: as §1
# [23] = target: GlcNAc(b1-4)GlcNAc(b1-4)GlcNAc
# In short: as §1
# [24] = target: GlcNAc(b1-4)GlcNAc(b1-4)GlcNAc(b1-4)GlcNAc(b1-4)GlcNAc
# In short: as §1
# [25] = target: GlcNAc(b1-4)GlcNAc(b1-4)GlcNAc(b1-4)GlcNAc(b1-4)GlcNAc(b1-4)GlcNAc
# In short: as §1
# [26] = target: GlcNAc(b1-4)[GlcNAc(b1-6)]GalNAc
# In short: as §1
# [27] = target: GlcNAc(b1-6)Gal(b1-4)GlcNAc
# In short: as §1
# [28] = target: GlcNAc(b1-6)GalNAc
# In short: as §1
# [29] = target: GlcNAc6S(b1-3)Gal(b1-4)GlcNAc
# In short: as §1
# [30] = target: Kdn(a2-3)Gal(b1-3)GalNAc
# In short: as §1
# [31] = target: Kdn(a2-3)Gal(b1-3)GlcNAc
# In short: as §1
# [32] = target: Kdn(a2-3)Gal(b1-4)Glc
# In short: as §1
# [33] = target: Kdn(a2-3)Gal(b1-4)GlcNAc
# In short: as §1
# [34] = target: Kdn(a2-3)Gal(b1-4)[Fuc(a1-3)]GlcNAc
# In short: as §1
# [35] = target: Kdn(a2-6)Gal(b1-4)GlcNAc
# In short: as §1
# [36] = target: Man(a1-2)Man(a1-2)Man(a1-3)Man
# In short: as §1
# [37] = target: Man(a1-2)Man(a1-2)Man(a1-6)[Man(a1-3)]Man
# In short: as §1
# [38] = target: Man(a1-2)Man(a1-3)Man
# In short: as §1
binder,measurement,setting,value
B1,glycan array binding signal (z-score),[1],-0.159
same,glycan array binding signal (z-score),[2],-0.176
same,glycan array binding signal (z-score),[3],-0.093
same,glycan array binding signal (z-score),[4],-0.203
same,glycan array binding signal (z-score),[5],-0.184
same,glycan array binding signal (z-score),[6],-0.144
same,glycan array binding signal (z-score),[7],-0.247
same,glycan array binding signal (z-score),[8],-0.038
same,glycan array binding signal (z-score),[9],-0.111
same,glycan array binding signal (z-score),[10],-0.211
same,glycan array binding signal (z-score),[11],-0.215
same,glycan array binding signal (z-score),[12],-0.21
same,glycan array binding signal (z-score),[13],-0.112
same,glycan array binding signal (z-score),[14],-0.239
same,glycan array binding signal (z-score),[15],-0.301
same,glycan array binding signal (z-score),[16],-0.243
same,glycan array binding signal (z-score),[17],-0.279
same,glycan array binding signal (z-score),[18],-0.227
same,glycan array binding signal (z-score),[19],-0.251
same,glycan array binding signal (z-score),[20],-0.183
same,glycan array binding signal (z-score),[21],-0.188
same,glycan array binding signal (z-score),[22],-0.311
same,glycan array binding signal (z-score),[23],-0.263
same,glycan array binding signal (z-score),[24],-0.164
same,glycan array binding signal (z-score),[25],-0.276
same,glycan array binding signal (z-score),[26],-0.124
same,glycan array binding signal (z-score),[27],0.274
same,glycan array binding signal (z-score),[28],-0.232
same,glycan array binding signal (z-score),[29],0.938
same,glycan array binding signal (z-score),[30],-0.317
same,glycan array binding signal (z-score),[31],-0.154
same,glycan array binding signal (z-score),[32],-0.263
same,glycan array binding signal (z-score),[33],-0.242
same,glycan array binding signal (z-score),[34],-0.191
same,glycan array binding signal (z-score),[35],-0.246
same,glycan array binding signal (z-score),[36],-0.134
same,glycan array binding signal (z-score),[37],-0.204
same,glycan array binding signal (z-score),[38],-0.232
